# The supplement of paper PMC8728848
# The other results are listed elsewhere or left out.
# B1: PitA (Streptococcus oralis), G3F8D8 (protein)
# chain: MNIRFDFKKVQIIARRLVTLLAILFLCAPISLLNADSTTEPQTTLHKTITPISGQDDKYELSLDITSKLGTETQTDPLDVVLVADLSGSMQNQDVQSFDGRTISRIDALKNTLRGTNGRKGLIDTILSNSNNRLSMVGFGGKIDNKKVDQYWDGNKWRLFRPYWPYERMTKYYDGVSPWDDANTILGWSNNARAAKTAVYNMSIAGGNSIGTESGIGTGTNIGAGLTLANQLMGSARSNAKKVVILLSDGFANMVYDANGYTIYNYNNEDPNIETAPQWFWDRLNNNLNSLSYSLAPTLDGFYSIKFRYSNNVDSITSLQYYMRQHNASIPNEIFSANDEDQLRDSFKDITDKILPLGIHHVSIKDVLSKYVQLLPNGSSEFRVVKEKDGSSEILIENQVTFDTKTTSEGLVEVTAKFSPNYSLEDGARYVLKFTVTSSQEALDAIAGDKKLEAGDAEGSDVNKLYSNKGASVTYSYGIGNSQTKTKEYSDNPTFKPSDPLTVPVEVEWQGVTGARTVITADQPSNVELKLVQKNKNGGSDNQDYRKTNVNVSKNVSNETRNFEKVAKGYQYDLIAPDVPAFTKEIKNVGTESKPSFKVIYKQLPSLTIKKVLEAENNLNKEFRIKVKLTSPDSKPLNGTFGEITVVNGEAEIRVEKRKRWEGILSYLPRGTHYKVEEEAASTNGYHVTYENQEGDLNKDETSIVTNHKLPSLSVTKKVTGVFANLLKSFKITINIRDAQNSPLNGTYTATVNNKRTPLQFTNGRASIDLNKDQTIKIYGLPLDSHYTVEEESNSSRGYQVSYENQEGKLDGDKSATVTNNKNSVPETGVDFLSSTLMLGIILPLGGIFFTILLGYLVVHRRK
# Tests used:
# Test in all cases: glycan array binding signal (z-score within array); higher = stronger binding
# Settings in all cases: glycan notation: IUPAC condensed, linker removed
# [1] = target: Neu5Ac(a2-6)Gal(b1-4)GlcNAc(b1-2)Man(a1-3)[Man(a1-6)]Man(b1-4)GlcNAc(b1-4)GlcNAc
# How it was run: (§1)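 Columns mapping to the same glycan were averaged after glycan names were converted to IUPAC-condensed notation. The data come from 3228 arrays in the Consortium for Functional Glycomics database, limited to those with an available protein sequence. Binding is reported as a within-array Z-score averaged across arrays of one protein sequence and across linkers.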
# [2] = target: Neu5Ac(a2-6)Gal(b1-4)GlcNAc(b1-2)Man(a1-3)[Neu5Ac(a2-6)Gal(b1-4)GlcNAc(b1-2)Man(a1-6)]Man(b1-4)GlcNAc(b1-4)GlcNAc
# How it was run: as §1
# [3] = target: Neu5Ac(a2-6)Gal(b1-4)GlcNAc(b1-2)Man(a1-3)[Neu5Ac(a2-6)Gal(b1-4)GlcNAc(b1-2)Man(a1-6)]Man(b1-4)GlcNAc(b1-4)[Fuc(a1-6)]GlcNAc
# How it was run: as §1
# [4] = target: Neu5Ac(a2-6)Gal(b1-4)GlcNAc(b1-2)Man(a1-6)Man(b1-4)GlcNAc(b1-4)GlcNAc
# How it was run: as §1
# [5] = target: Neu5Ac(a2-6)Gal(b1-4)GlcNAc(b1-2)Man(a1-6)[Gal(b1-4)GlcNAc(b1-2)Man(a1-3)]Man(b1-4)GlcNAc(b1-4)GlcNAc
# How it was run: as §1
# [6] = target: Neu5Ac(a2-6)Gal(b1-4)GlcNAc(b1-2)Man(a1-6)[GlcNAc(b1-2)Man(a1-3)]Man(b1-4)GlcNAc(b1-4)GlcNAc
# How it was run: as §1
# [7] = target: Neu5Ac(a2-6)Gal(b1-4)GlcNAc(b1-2)Man(a1-6)[Man(a1-3)]Man(b1-4)GlcNAc(b1-4)GlcNAc
# How it was run: as §1
# [8] = target: Neu5Ac(a2-6)Gal(b1-4)GlcNAc(b1-3)Gal(b1-3)GlcNAc
# How it was run: as §1
# [9] = target: Neu5Ac(a2-6)Gal(b1-4)GlcNAc(b1-3)Gal(b1-4)GlcNAc
# How it was run: as §1
# [10] = target: Neu5Ac(a2-6)Gal(b1-4)GlcNAc(b1-3)Gal(b1-4)GlcNAc(b1-3)Gal(b1-4)GlcNAc
# How it was run: as §1
# [11] = target: Neu5Ac(a2-6)Gal(b1-4)GlcNAc(b1-3)Gal(b1-4)[Fuc(a1-3)]GlcNAc(b1-3)Gal(b1-4)[Fuc(a1-3)]GlcNAc
# How it was run: as §1
# [12] = target: Neu5Ac(a2-6)Gal(b1-4)GlcNAc(b1-3)GalNAc
# How it was run: as §1
# [13] = target: Neu5Ac(a2-6)Gal(b1-4)GlcNAc(b1-3)[Neu5Ac(a2-6)Gal(b1-4)GlcNAc(b1-6)]GalNAc
# How it was run: as §1
# [14] = target: Neu5Ac(a2-6)Gal(b1-4)GlcNAc(b1-6)GalNAc
# How it was run: as §1
# [15] = target: Neu5Ac(a2-6)Gal(b1-4)GlcNAc(b1-6)[Gal(b1-3)GlcNAc(b1-3)]Gal(b1-4)Glc
# How it was run: as §1
# [16] = target: Neu5Ac(a2-6)Gal(b1-4)GlcNAc6S
# How it was run: as §1
# Neu5Ac(a2-6)GalNAc = target: Neu5Ac(a2-6)GalNAc
# How it was run: as §1
# [17] = target: Neu5Ac(a2-6)GalNAc(b1-4)GlcNAc
# How it was run: as §1
# [18] = target: Neu5Ac(a2-6)GalNAc(b1-4)GlcNAc6S
# How it was run: as §1
# [19] = target: Neu5Ac(a2-6)GlcNAc(b1-4)GlcNAc
# How it was run: as §1
# [20] = target: Neu5Ac(a2-6)GlcNAc(b1-4)GlcNAc(b1-4)GlcNAc
# How it was run: as §1
# Neu5Ac(a2-8)Neu5Ac = target: Neu5Ac(a2-8)Neu5Ac
# How it was run: as §1
# [21] = target: Neu5Ac(a2-8)Neu5Ac(a2-3)Gal(b1-3)GalNAc(b1-4)[Neu5Ac(a2-8)Neu5Ac(a2-3)]Gal(b1-4)Glc
# How it was run: as §1
# [22] = target: Neu5Ac(a2-8)Neu5Ac(a2-3)Gal(b1-4)Glc
# How it was run: as §1
# [23] = target: Neu5Ac(a2-8)Neu5Ac(a2-3)[Gal(b1-3)GalNAc(b1-4)]Gal(b1-4)Glc
# How it was run: as §1
# [24] = target: Neu5Ac(a2-8)Neu5Ac(a2-3)[GalNAc(b1-4)]Gal(b1-4)Glc
# How it was run: as §1
# [25] = target: Neu5Ac(a2-8)Neu5Ac(a2-8)Neu5Ac
# How it was run: as §1
# [26] = target: Neu5Ac(a2-8)Neu5Ac(a2-8)Neu5Ac(a2-3)Gal(b1-4)Glc
# How it was run: as §1
# [27] = target: Neu5Ac(a2-8)Neu5Ac(a2-8)Neu5Ac(a2-3)[GalNAc(b1-4)]Gal(b1-4)Glc
# How it was run: as §1
# [28] = target: Neu5Ac(a2-8)Neu5Ac(a2-8)Neu5Ac(a2-8)Neu5Ac(a2-3)[GalNAc(b1-4)]Gal(b1-4)Glc
# How it was run: as §1
# [29] = target: Neu5Ac(b2-6)Gal(b1-4)GlcNAc
# How it was run: as §1
# Neu5Ac(b2-6)GalNAc = target: Neu5Ac(b2-6)GalNAc
# How it was run: as §1
# [30] = target: Neu5Ac9Ac(a2-3)Gal(b1-3)GlcNAc
# How it was run: as §1
# [31] = target: Neu5Ac9Ac(a2-3)Gal(b1-4)GlcNAc
# How it was run: as §1
# [32] = target: Neu5Ac9Ac(a2-6)Gal(b1-4)GlcNAc
# How it was run: as §1
# [33] = target: Neu5Gc(a2-3)Gal(b1-3)GlcNAc
# How it was run: as §1
# [34] = target: Neu5Gc(a2-3)Gal(b1-3)[Fuc(a1-4)]GlcNAc
# How it was run: as §1
# Neu5Gc(a2-3)Gal(b1-4)Glc = target: Neu5Gc(a2-3)Gal(b1-4)Glc
# How it was run: as §1
# [35] = target: Neu5Gc(a2-3)Gal(b1-4)GlcNAc
# How it was run: as §1
# [36] = target: Neu5Gc(a2-3)Gal(b1-4)[Fuc(a1-3)]GlcNAc
# How it was run: as §1
# [37] = target: Neu5Gc(a2-6)Gal(b1-4)GlcNAc
# How it was run: as §1
# Neu5Gc(a2-6)GalNAc = target: Neu5Gc(a2-6)GalNAc
# How it was run: as §1
# [38] = target: Neu5Gc(b2-6)Gal(b1-4)GlcNAc
# How it was run: as §1
binder,measurement,setting,value
B1,glycan array binding signal (z-score),[1],-0.483
same,glycan array binding signal (z-score),[2],-0.406
same,glycan array binding signal (z-score),[3],0.33
same,glycan array binding signal (z-score),[4],-0.428
same,glycan array binding signal (z-score),[5],-0.302
same,glycan array binding signal (z-score),[6],-0.431
same,glycan array binding signal (z-score),[7],0.537
same,glycan array binding signal (z-score),[8],0.421
same,glycan array binding signal (z-score),[9],-0.602
same,glycan array binding signal (z-score),[10],-0.155
same,glycan array binding signal (z-score),[11],0.046
same,glycan array binding signal (z-score),[12],0.626
same,glycan array binding signal (z-score),[13],-0.074
same,glycan array binding signal (z-score),[14],1.61
same,glycan array binding signal (z-score),[15],-0.053
same,glycan array binding signal (z-score),[16],-0.494
same,glycan array binding signal (z-score),Neu5Ac(a2-6)GalNAc,-0.617
same,glycan array binding signal (z-score),[17],-0.48
same,glycan array binding signal (z-score),[18],-0.491
same,glycan array binding signal (z-score),[19],-0.617
same,glycan array binding signal (z-score),[20],-0.456
same,glycan array binding signal (z-score),Neu5Ac(a2-8)Neu5Ac,-0.338
same,glycan array binding signal (z-score),[21],-0.308
same,glycan array binding signal (z-score),[22],-0.559
same,glycan array binding signal (z-score),[23],-0.463
same,glycan array binding signal (z-score),[24],-0.367
same,glycan array binding signal (z-score),[25],-0.456
same,glycan array binding signal (z-score),[26],-0.523
same,glycan array binding signal (z-score),[27],-0.451
same,glycan array binding signal (z-score),[28],0.179
same,glycan array binding signal (z-score),[29],-0.514
same,glycan array binding signal (z-score),Neu5Ac(b2-6)GalNAc,-0.451
same,glycan array binding signal (z-score),[30],-0.641
same,glycan array binding signal (z-score),[31],-0.627
same,glycan array binding signal (z-score),[32],-0.288
same,glycan array binding signal (z-score),[33],-0.493
same,glycan array binding signal (z-score),[34],-0.389
same,glycan array binding signal (z-score),Neu5Gc(a2-3)Gal(b1-4)Glc,-0.108
same,glycan array binding signal (z-score),[35],-0.701
same,glycan array binding signal (z-score),[36],-0.209
same,glycan array binding signal (z-score),[37],-0.444
same,glycan array binding signal (z-score),Neu5Gc(a2-6)GalNAc,-0.577
same,glycan array binding signal (z-score),[38],-0.411
